Whole data set: some 110,000 compounds, median “z-score” near -0.1, cut for the highest 2% near 2. Some of the results follow. Activity calls are given as the source filed them.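 How the source made its calls: active means z-score in the third read window above 3 or below -3; inactive means the rest.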

The target in the test is Metabotropic glutamate receptor 8 (Rattus norvegicus) (UniProt P70579). Nature of the test: mGluR8 Gi/Go-coupled signaling modulation – cell-based, rat, thallium flux, HTS, primary screen (AID 488969). To be noted: HEK293 rat mGluR8, GIRK (G protein-gated inwardly rectifying potassium channel) thallium flux, FluoZin2; at 10 µM; stronger effect = higher value; submaximal glutamate (EC20) added with thallium.
UniProt P70579, sequence (P70579 whole entry, looked up): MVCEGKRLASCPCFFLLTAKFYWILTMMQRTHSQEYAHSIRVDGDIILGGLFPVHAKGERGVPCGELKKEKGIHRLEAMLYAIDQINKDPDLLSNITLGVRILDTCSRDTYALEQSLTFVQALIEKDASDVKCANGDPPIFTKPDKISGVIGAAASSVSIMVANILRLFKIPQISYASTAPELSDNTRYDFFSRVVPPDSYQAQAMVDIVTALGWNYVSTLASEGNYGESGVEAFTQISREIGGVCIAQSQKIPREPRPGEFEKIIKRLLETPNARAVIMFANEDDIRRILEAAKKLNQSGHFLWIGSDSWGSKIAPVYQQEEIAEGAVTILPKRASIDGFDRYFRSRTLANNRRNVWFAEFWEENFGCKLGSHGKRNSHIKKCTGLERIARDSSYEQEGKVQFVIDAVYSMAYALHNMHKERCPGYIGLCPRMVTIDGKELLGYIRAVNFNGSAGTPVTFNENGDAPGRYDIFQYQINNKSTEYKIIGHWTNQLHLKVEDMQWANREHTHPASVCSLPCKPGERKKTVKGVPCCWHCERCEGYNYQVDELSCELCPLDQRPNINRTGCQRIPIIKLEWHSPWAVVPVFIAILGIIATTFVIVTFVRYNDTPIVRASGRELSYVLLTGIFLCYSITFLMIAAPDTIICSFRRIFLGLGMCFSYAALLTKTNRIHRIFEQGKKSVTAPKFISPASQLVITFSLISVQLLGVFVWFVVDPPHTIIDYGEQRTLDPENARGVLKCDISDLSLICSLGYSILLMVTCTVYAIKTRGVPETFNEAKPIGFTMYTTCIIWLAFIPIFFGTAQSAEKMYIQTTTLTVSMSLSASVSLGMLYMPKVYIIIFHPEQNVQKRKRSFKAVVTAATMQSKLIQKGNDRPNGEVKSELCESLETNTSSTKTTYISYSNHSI
`COc1ccc(NC(=O)C(NC(=O)CC2NC(=O)NC2=O)c2ccccc2)cc1` (stereo unspecified) displayed a z-score of 0.0457.

The molecule `CC1CCc2c(sc3ncnc(N4CCOCC4)c23)C1` (stereo unspecified) gave a z-score of -1.25. `c1ccc(-c2noc(CSc3nnnn3-c3ccccc3)n2)cc1` gave a z-score of 2.18. `CCN(CC)S(=O)(=O)c1ccc(-n2cnnn2)c(C)c1` came in with a z-score of 0.0792. In the case of `CCn1cc([N+](=O)[O-])c(C(=O)N2CCN(C(=O)c3ccco3)CC2)n1` it was -0.0369. For `CN(C)C1NC(=O)c2cc(-c3ccccc3)sc2N1` (stereo unspecified) the value was 0.0566. Regarding `NC(=O)C1CCCN(S(=O)(=O)c2ccccc2)C1` (stereo unspecified), the z-score was -0.127.

The molecule `CCc1ccccc1NC(=O)c1cnc2n(c1=O)CCS2` gave a z-score of -0.074. For `O=C(CC1CCCCC1)NCCCN1CCOCC1` the value was -0.0911; for `O=C1c2ccccc2C(=O)N1Cc1nc2ccccc2c(=O)n1CCCN1CCOCC1`, -0.0405; for `CCN(CC)CCNc1ncnc2c1[nH]c1ccc(OC)cc12`, -0.361. In turn, `COc1ccc(NC(=O)c2nn(C34CC5CC(CC(C5)C3)C4)cc2[N+](=O)[O-])cc1` gave a z-score of -0.0541. For `CCc1nnc(NC(=O)C(=O)NCCOC(=O)c2ccccc2Cl)s1` the value was -0.184; for `COc1ccc(/C=c2\s/c(=C/C(=O)c3ccc(C)cc3)[nH]c2=O)cc1OC`, 0.46.

The molecule `O=c1[nH]c2cc(Cl)ccc2n(CCNc2ncc(C(F)(F)F)cc2Cl)c1=O` came in with a z-score of 0.182. With `Cn1c(NCc2c(O)ccc3ccccc23)nc2ccccc21`, the z-score is -0.4. As to `C/C(CC(=O)Nc1ccccc1Br)=N\NC(=O)C(=O)N1CCCC1`, the z-score stood at 0.773. Molecule `Cc1ccc(Cl)cc1NC(=O)CCn1cccc1` had a z-score of 0.427. For `CCCCc1nc(NCCN)c(C#N)c2c1CSC(C)(C)C2` the value was 0.0415; for `CC1(C)Cc2ccccc2-c2nnc(SCC(=O)Nc3nc4ccccc4s3)n21`, active: -3.05; for `COc1ccc(NC2CC(=O)N(CCc3ccccc3)C2=O)cc1` (stereo unspecified), -0.102. The molecule `O=C(O)c1cccc(NCc2cccnc2)c1` gave a z-score of -0.189. Molecule `CN(C)C/C(Cl)=C(\Cl)c1ccccc1` displayed a z-score of -0.465.

In turn, `c1cc(CSc2nnc(-c3ccc4c(c3)OCO4)o2)ccn1` registered a z-score of -0.127.

`Cc1cc(C)c(C#N)c(Nc2ccccc2Cl)n1` displayed a z-score of -0.639. `CCN(C)c1ccc(/C=N\n2nnnc2N)cc1` gave a z-score of 0.204. Molecule `N#CCC1c2ccccc2CCN1C(=O)Nc1cccc(C(F)(F)F)c1` (stereo unspecified) had a z-score of -0.233. With `Cc1c(NC(=O)/C(C#N)=C/c2ccc(-c3ccccc3Cl)o2)c(=O)n(-c2ccccc2)n1C`, the z-score is 0.0143.

As to `COc1ccccc1N1CCN(C(=O)CSc2nnc(NC(=O)c3ccco3)s2)CC1`, the z-score amounted to 0.554.

For the molecule `CNS(=O)(=O)c1cccc(C(=O)OCC(=O)c2cc(C)n(-c3ccc4c(c3)OCO4)c2C)c1`, the z-score is 1.53. `CCOC(=O)N1CCC(NC(=O)Cc2cn(C)c3ccccc23)CC1`: the z-score was -0.169.

The values above are taken from PubChem BioAssay AID488969 (Vanderbilt High Throughput Screening Facility, 2010).
